According to paper PMC4336329 (PLoS ONE, 2015):
Among all 310,000 compounds or so, about 14,000 (4.5%) showed an effect of 50% or more. Effects have a minus sign here. This is one part of the list.

Molecular target: human ether-à-go-go-related gene (hERG) potassium channel (human, UniProt Q12809)
Assay: primary screen, population patch clamp on CHO cells stably expressing hERG
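Note: peak tail current of the secondary pulse compared with the same well before compound.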

Chain of human ether-à-go-go-related gene (hERG) potassium channel (Q12809 whole entry, looked up): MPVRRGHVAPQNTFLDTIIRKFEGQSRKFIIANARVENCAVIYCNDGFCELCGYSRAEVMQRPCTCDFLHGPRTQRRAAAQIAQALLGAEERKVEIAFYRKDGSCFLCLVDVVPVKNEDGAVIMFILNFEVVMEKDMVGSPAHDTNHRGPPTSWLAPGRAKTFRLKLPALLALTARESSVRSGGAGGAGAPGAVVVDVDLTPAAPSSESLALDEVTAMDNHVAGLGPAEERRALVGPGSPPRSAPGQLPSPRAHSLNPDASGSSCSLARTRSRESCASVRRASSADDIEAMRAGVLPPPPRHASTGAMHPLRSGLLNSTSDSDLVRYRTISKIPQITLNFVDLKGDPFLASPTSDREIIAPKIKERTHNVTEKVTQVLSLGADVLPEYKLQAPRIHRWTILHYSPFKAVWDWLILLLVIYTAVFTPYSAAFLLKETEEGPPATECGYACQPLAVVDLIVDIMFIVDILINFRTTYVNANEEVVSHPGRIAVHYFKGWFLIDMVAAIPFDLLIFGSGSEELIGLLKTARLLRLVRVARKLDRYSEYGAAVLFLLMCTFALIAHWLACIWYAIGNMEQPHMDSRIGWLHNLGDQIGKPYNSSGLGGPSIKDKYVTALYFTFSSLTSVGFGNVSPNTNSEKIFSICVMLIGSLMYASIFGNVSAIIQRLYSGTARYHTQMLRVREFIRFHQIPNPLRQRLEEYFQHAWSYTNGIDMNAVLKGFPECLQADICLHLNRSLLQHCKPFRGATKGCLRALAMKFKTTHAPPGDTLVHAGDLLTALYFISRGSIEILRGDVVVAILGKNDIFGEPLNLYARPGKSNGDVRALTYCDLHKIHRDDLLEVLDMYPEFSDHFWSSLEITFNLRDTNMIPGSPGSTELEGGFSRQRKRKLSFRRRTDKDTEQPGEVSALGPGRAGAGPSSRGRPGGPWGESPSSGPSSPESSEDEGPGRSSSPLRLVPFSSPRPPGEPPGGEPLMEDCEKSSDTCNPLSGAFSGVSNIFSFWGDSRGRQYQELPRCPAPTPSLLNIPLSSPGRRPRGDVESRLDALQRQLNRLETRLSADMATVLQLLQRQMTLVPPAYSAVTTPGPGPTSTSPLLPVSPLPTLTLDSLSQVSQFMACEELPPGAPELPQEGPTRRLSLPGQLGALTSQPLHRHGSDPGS

| Compound | hERG current change (%, negative = inhibition) at 10uM [%] |
| --- | --- |
| O=C(Nc1ccc(Cl)c(Cl)c1)Nc1ccc(N2CCCC2)c(S(=O)(=O)Nc2ccccc2Cl)c1 | 6.44 |
| S=C1c2ccccc2CN1c1ccccc1 | 1.58 |
| O=c1[nH]c(Nc2ccccn2)cc2ccccc12 | 8.27 |
| COc1ccc(NC2CCCN(C(=O)CN3C(=O)c4ccccc4C3=O)C2)cc1OC (stereo not drawn) | 14 |
| Cc1cccc(NC(=O)CSc2nc(=O)n(CCCN3CCOCC3)c3c2CCCC3)c1 | -42.4 |
| C=CCCCCCCCCC(=O)NN | 13.4 |
| CCOC(=O)Cc1csc(NC(=O)NC2(C(F)(F)F)Oc3ccc(Cl)cc3O2)n1 (stereo not drawn) | 15.8 |
| CC(C(=O)NCC1CCCCC1)N1CCc2ccccc2C1 (stereo not drawn) | -1.3 |
| O=[N+]([O-])c1cccc(Cl)c1NCCNS(=O)(=O)c1ccc(Cl)cc1 | -23 |
| O=C(c1cc(S(=O)(=O)N2CCOCC2)ccc1F)N1CCCc2ccccc21 | -8.23 |
| CCSc1nc(N2CCCCC2)c2c(c1C#N)CCCC2 | 0.658 |
| COCCN(C(=O)CNC(=O)c1cccs1)C(C(=O)NC(C)(C)C)c1ccccc1 (stereo not drawn) | 8.27 |
| O=C(Nc1ccc(Cl)c(Cl)c1)C1CCN(C(=O)c2ccco2)CC1 | -33.3 |
| CC(C(=O)NC(C)(C)C)N(Cc1cccs1)C(=O)CCN1CCc2ccccc21 (stereo not drawn) | 7.38 |
| CC(NS(=O)(=O)c1cc2c3c(c1)CCC(=O)N3CCC2)c1ccccc1 (stereo not drawn) | -2.75 |
| O=C(NCc1ccc(F)cc1)C1CCN(S(=O)(=O)c2cccc3nonc23)CC1 | 6.77 |
| CCOC(=O)CNS(=O)(=O)c1ccc2c3c(cccc13)C(=O)N2CC | 21.9 |
| COc1ccc(-n2cc(C#N)c(=O)n(Cc3ccc(F)cc3)c2=O)cc1 | 7.54 |
| O=C(Cc1ccccc1)N1CCN(C(=O)c2ccco2)CC1 | 5.12 |
| COc1ccc(OS(=O)(=O)c2c(C)noc2C)cc1 | -1.5 |
| CC(C)C(=O)Nc1nnc(SCC(=O)NC2CCCC2)s1 | 4.35 |
| CCOC(=O)CCCN1CC(O)=C(c2nc(-c3ccc(Cl)cc3)cs2)C1=N | -25.9 |
| Cc1nc2cc(NCc3ccccc3O)ccc2n1Cc1ccccc1 | 13.8 |

| Compound | hERG current change (%, negative = inhibition) at 10uM [%] |
| --- | --- |
| CCc1ccccc1NC(=S)N1CCN(c2cccc(OC)c2)CC1 | 24.7 |
| O=S(=O)(c1ccccc1)N1CCN(Cc2ccc(Cl)cc2)CC1 | -22.7 |
| Cc1[nH]n(-c2ccccc2)c(=O)c1/C=N/N1C(=O)c2cccc3cccc(c23)C1=O | 3.73 |
| CC(=O)Nc1ccc(S(=O)(=O)Nn2cnnc2)cc1 | 15.6 |
| CSc1ccc(CN2CCCC(N3CCN(c4ccccc4)CC3)C2)cc1 (stereo not drawn) | -64.2 |
| COc1ccc(N=Cc2c(O)n(Cc3cccs3)c(=O)[nH]c2=O)cc1 | 10.4 |
| CC(=O)Nc1cccc(NC(=O)CSc2nccn2Cc2ccco2)c1 | 14 |
| O=C(c1ccc(F)cc1)C1CCN(C(=S)Nc2ccccc2Cl)CC1 | 0.35 |
| CCOc1ccccc1NC(=O)CCNC(=O)c1ccc(Cl)cc1 | 5.74 |
| O=S(=O)(c1cc(Cl)ccc1Cl)n1nnc2ccccc21 | 9.97 |
| C=CCn1c(=O)n2ncnc2c2c3c(sc21)CCCC3 | -59.3 |
| Cc1ccc(-n2nnnc2SCC(=O)NC2CC2)cc1C | -9.55 |
| CC1CCCCC1NC(=O)c1ccc(S(=O)(=O)NCC2CCCO2)cc1 (stereo not drawn) | -10.7 |
| O=C(NCCN1CCOCC1)c1csc2c1CCCC2 | -11 |
| NC(=O)C1CCCN1S(=O)(=O)c1ccc2ccccc2c1 (stereo not drawn) | -22.5 |
| Cn1c(=O)c2c(ncn2CC(=O)N2CCCc3ccccc32)n(C)c1=O | -3.3 |
| CN(C)c1ccc(NC(=O)N2CCOCC2)cc1 | -3.34 |
| O=C(CCN1CCN(C/C=C/c2ccccc2)CC1)Nc1ccc(Cl)cc1 | -78.2 |
| N#Cc1ccc(OCC(=O)N2CCN(S(=O)(=O)c3cccc(Cl)c3)CC2)cc1 | -71.4 |
| Brc1ccc2[nH]c3c(NCc4ccccn4)ncnc3c2c1 | -11.1 |
| CCOc1ccccc1NC(=O)CCNS(=O)(=O)c1cccc2nonc12 | 2.65 |
| Cc1ccc(S(=O)(=O)Nc2cccc(-c3ccc(N4CCCCCC4)nn3)c2)c(C)c1 | 13.6 |
